{"source": "the supplement of paper PMC11417369", "note": "This is one part of the list."}
{"system": "PF3D7_0420300 AP2 domain 1 (GST-tagged)", "assay": "gcPBM binding intensity (ln(normalized median fluorescence intensity)); higher = stronger DNA binding", "procedure,_shortened": "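GST-tagged P. falciparum DNA-binding domains produced in E. coli were incubated for 1 h on an Agilent 4 × 180k array of primer-extended double-stranded 36-bp intergenic genomic probes with negative controls. Binding intensity is the highest Masliner-normalised natural-log median intensity across replicate spots of either probe orientation, with bound protein detected by Alexa488 anti-GST antibody at 488 nm.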"}
{"sequence": "GGGATATATTATTATACACACATATATAAAAGCTTT [CACACA_site2445]", "gcPBM binding intensity (ln)": 9.45}
{"sequence": "TTAATTATATCAGGACGTACTAATATAAATATATAT [XGTACX_site8909]", "gcPBM binding intensity (ln)": 9.04}
{"sequence": "ATTATCTATCGTTTTTGTACTTACACCTTAATACAA [XGTACX_site7337]", "gcPBM binding intensity (ln)": 9.58}
{"sequence": "ACTACGAATGGTAGAGTGCAGTCTGGAGAAAAGTAC [GTGCAC_site9681]", "gcPBM binding intensity (ln)": 9.33}
{"sequence": "CTTTTTTTTTTTTTTGCGCACTGTTTAAAGGGAAAT [GTGCAC_site9815]", "gcPBM binding intensity (ln)": 9.25}
{"sequence": "ATATATATATAATAAAGTACAAATTCTAAATGATAT [XGTACX_site570]", "gcPBM binding intensity (ln)": 9.4}
{"sequence": "TATCTTATGTCTGAAAGTACAAATTTTTTTCTACTT [XGTACX_site2208]", "gcPBM binding intensity (ln)": 9.09}
{"sequence": "AAATATAATAATAATTTAAGAATCTAATATTTTATA [CACACA_negctrl_site831]", "gcPBM binding intensity (ln)": 8.88}
{"sequence": "TACTATATCGATACCAGTACAGATTTATAAATAATA [XGTACX_site7491]", "gcPBM binding intensity (ln)": 9.09}
{"sequence": "TTATAAAAAAAAATAACACACAGACATAAGAATAAA [CACACA_site9383]", "gcPBM binding intensity (ln)": 9.95}
{"sequence": "TATATTAAGTATAAGACACACATATAGTAATAGAAA [CACACA_site5176]", "gcPBM binding intensity (ln)": 9.5}
{"sequence": "GGTATACATATTAAATGTACATATTTTAACAATAAG [XGTACX_site4868]", "gcPBM binding intensity (ln)": 9.05}
{"sequence": "ATATAACTTTTCTTAACACACAAAAAACAAAAATAA [CACACA_site2380]", "gcPBM binding intensity (ln)": 9.44}
{"sequence": "AAGTGTCAAAGTTACACACACAAACTTGTCATTTTT [CACACA_site837]", "gcPBM binding intensity (ln)": 9.75}
{"sequence": "ATATAATTATATAAATGTACTCATTCGTTATTTTGC [XGTACX_site6132]", "gcPBM binding intensity (ln)": 9.2}
{"sequence": "CAAAGATATATAAACACACAAATATAACATATATAC [CACACA_site7395]", "gcPBM binding intensity (ln)": 9.69}
{"sequence": "TATGAATATCTATACACACACATATATATACTCACT [CACACA_site1597]", "gcPBM binding intensity (ln)": 9.9}
{"sequence": "TATATTATTATATATTGTACTTTTTATATTTGCATT [XGTACX_site2978]", "gcPBM binding intensity (ln)": 9.51}
{"sequence": "TACACTTGTAATTGCGTGCACGAAGGATATATATAT", "gcPBM binding intensity (ln)": 9.3}
{"sequence": "TATGTATATTTTTTTGTGCACATATATATATATATA", "gcPBM binding intensity (ln)": 9.37}
{"sequence": "ATTTTTTTTTTAAAATGTACATGAGAAATTGTATAT [XGTACX_site425]", "gcPBM binding intensity (ln)": 9.04}
{"sequence": "TTTCTTATATAAGTGTACTAAAATATATATATGCAA [GTGCAC_negctrl_site546]", "gcPBM binding intensity (ln)": 9}
{"sequence": "TAAAAAAATAAATATACACACATATATAAATATGTA [CACACA_site6641]", "gcPBM binding intensity (ln)": 9.3}
{"sequence": "TAACATAATATAGACACACACATGTACATATGCCAA [CACACA_site1842]", "gcPBM binding intensity (ln)": 9.76}
{"sequence": "TATATTATTAATTAAGCACACATTATTTTTATAATA [CACACA_site3982]", "gcPBM binding intensity (ln)": 9.06}
{"sequence": "TCGACAAATGTATATACACACATTTGTAACATAAAT [CACACA_site560]", "gcPBM binding intensity (ln)": 9.39}
{"sequence": "TATAAAGGTGAAATTTGTACATAGTCATTTTTTAAT [XGTACX_site4811]", "gcPBM binding intensity (ln)": 9.05}
{"sequence": "TGACGAAAAAAAAGGGTGCTTAGTATAACTTTAAAG", "gcPBM binding intensity (ln)": 9.08}
{"sequence": "TTCTTTTTTAAACACACACACACAAGAAAATATATA [CACACA_site5680]", "gcPBM binding intensity (ln)": 10.1}
{"sequence": "TTTTTTTTAATTGTGATACGTATATTATTTTTTGAT [TGCATGCA_negctrl_site318]", "gcPBM binding intensity (ln)": 9.3}
{"sequence": "ATTTTTAATATTATTACACACACTAATAAAAAAAAA [CACACA_site8265]", "gcPBM binding intensity (ln)": 9.51}
{"sequence": "ATATGTAAAGAAAAGTAAACACTAATTTTAAACAAT [CACACA_negctrl_site11]", "gcPBM binding intensity (ln)": 9.42}
{"sequence": "TATATATATGTGCAGTGTACTTTTTTTTTCTGTAAG [XGTACX_site3424]", "gcPBM binding intensity (ln)": 9.35}
{"sequence": "GAGAAGACATTACACAGTACCCAGGAAATCTACGGA [XGTACX_site1993]", "gcPBM binding intensity (ln)": 9.44}
{"sequence": "ATATATATATATATATGTACTTAATATTTCTTATTT [XGTACX_site6206]", "gcPBM binding intensity (ln)": 9.21}
{"sequence": "ATTAAAACCAATTAAAAAAAATTTATAATGGAAGCA [TGCATGCA_negctrl_site273]", "gcPBM binding intensity (ln)": 9.22}
{"sequence": "TATTATTGTTGTTCATGTACACACTATAATAAAAGC [XGTACX_site8957]", "gcPBM binding intensity (ln)": 9.31}
{"sequence": "AATGACTAAATTTAAACACACAAGGGGAGTTTACTT [CACACA_site918]", "gcPBM binding intensity (ln)": 9.4}
{"sequence": "GAGATAAAATAAAACACACACATATATATATATAAT [CACACA_site5246]", "gcPBM binding intensity (ln)": 9.95}
{"sequence": "TTGTATTTTTAAATGACACACACATATATATATATA [CACACA_site8481]", "gcPBM binding intensity (ln)": 9.63}
{"sequence": "AAGTTATAAAAATAAAGTACAAAGTAGCTATTTTTT [XGTACX_site3144]", "gcPBM binding intensity (ln)": 9.21}
{"sequence": "ATAAATATAAAAAAATGTACATATAGTAATACATAC [XGTACX_site508]", "gcPBM binding intensity (ln)": 9.42}
{"sequence": "GACTTTTCATTTATAGTGCAAGTTTTTTTTTTTTTT [GTGCAC_site9698]", "gcPBM binding intensity (ln)": 9.54}
{"sequence": "ATAAGTATAAGAATCAGTACACAGTTTCTACATACT [XGTACX_site5834]", "gcPBM binding intensity (ln)": 9.26}
{"sequence": "GAAATAAAAAGAAATGCATGTAATTTTTTTTTTTTT [TGCATGCA_site928]", "gcPBM binding intensity (ln)": 9.11}
{"sequence": "TATATATCATTTAAAACACACAAAAAAAAAAGTTAT [CACACA_site6191]", "gcPBM binding intensity (ln)": 9.57}
{"sequence": "GTTATTTATAGACACACACACATGCATGCACATATA [CACACA_site6204]", "gcPBM binding intensity (ln)": 10.1}
{"sequence": "CATATGTTCATCATAGCACACATATATAAATTACAA [CACACA_site9177]", "gcPBM binding intensity (ln)": 9.28}
{"sequence": "TATAGGTATGTATGTACACACAAAAAATGGAATATA [CACACA_site7704]", "gcPBM binding intensity (ln)": 9.83}
{"sequence": "TATATATATATATATTGTACATAATGTATATATGTT [XGTACX_site3448]", "gcPBM binding intensity (ln)": 9.23}
{"sequence": "CATATATATTTGTTCACACACACACCCAAAAAAAAA [CACACA_site2476]", "gcPBM binding intensity (ln)": 9.99}
{"sequence": "ATATATATATATATTTGTACATATATACATAAAATT [XGTACX_site359]", "gcPBM binding intensity (ln)": 9.16}
{"sequence": "CACACCCACAGACACACACACACATATATATATATA [CACACA_site363]", "gcPBM binding intensity (ln)": 10.2}
{"sequence": "TTTAAAATGGGACTTTGAAAAAAAAAAAAAAAAACA [TGCATGCA_negctrl_site111]", "gcPBM binding intensity (ln)": 9.09}
{"sequence": "GAAAAAGTTATAAATTGTACTAAATATTAAATATTG [XGTACX_site7890]", "gcPBM binding intensity (ln)": 9}
{"sequence": "AAAAAAAAAAAAAGGTGTACATGCAAAATAAATTCT [XGTACX_site4592]", "gcPBM binding intensity (ln)": 9.63}
{"sequence": "AAATAAATAAGAAACGCATGCATATATAATATATAA [TGCATGCA_site326]", "gcPBM binding intensity (ln)": 9.36}
